From PMC4429955
Results are given in words; binding and its absence hold for the method and conditions named. For part of these data: In cells and extracts the contact can be indirect. For part of these data: Tags and fused reporters may be left off the sequences shown. Some binding calls cover weakened binding; strength is not graded here.

T1: Pex11-Cub (S. cerevisiae) (UniProt Q12462)
T1 sequence: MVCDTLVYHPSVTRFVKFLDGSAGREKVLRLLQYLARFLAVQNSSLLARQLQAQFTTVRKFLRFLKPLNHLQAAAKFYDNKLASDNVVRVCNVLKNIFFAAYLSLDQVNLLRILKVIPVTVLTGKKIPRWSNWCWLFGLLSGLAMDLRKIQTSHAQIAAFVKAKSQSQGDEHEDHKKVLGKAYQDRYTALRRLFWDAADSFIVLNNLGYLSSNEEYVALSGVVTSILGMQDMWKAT

T2: Mdm10-Cub (S. cerevisiae) (UniProt P18409)
T2 sequence: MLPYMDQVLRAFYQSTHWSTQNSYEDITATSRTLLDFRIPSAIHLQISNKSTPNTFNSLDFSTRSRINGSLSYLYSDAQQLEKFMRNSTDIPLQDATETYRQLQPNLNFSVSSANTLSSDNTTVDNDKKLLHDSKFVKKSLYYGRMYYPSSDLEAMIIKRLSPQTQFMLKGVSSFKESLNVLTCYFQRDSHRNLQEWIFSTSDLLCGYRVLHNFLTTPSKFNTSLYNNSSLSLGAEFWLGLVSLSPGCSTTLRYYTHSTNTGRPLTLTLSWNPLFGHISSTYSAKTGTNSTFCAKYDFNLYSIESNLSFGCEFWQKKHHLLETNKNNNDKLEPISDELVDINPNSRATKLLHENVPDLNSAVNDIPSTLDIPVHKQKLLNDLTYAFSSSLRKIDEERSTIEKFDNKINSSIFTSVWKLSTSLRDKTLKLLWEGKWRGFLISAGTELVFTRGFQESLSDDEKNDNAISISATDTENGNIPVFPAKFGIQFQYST

T3: Mdm10 tagged at its C-terminus with the C-terminal part of Venus (VC) (S. cerevisiae) (UniProt P18409)
T3 sequence: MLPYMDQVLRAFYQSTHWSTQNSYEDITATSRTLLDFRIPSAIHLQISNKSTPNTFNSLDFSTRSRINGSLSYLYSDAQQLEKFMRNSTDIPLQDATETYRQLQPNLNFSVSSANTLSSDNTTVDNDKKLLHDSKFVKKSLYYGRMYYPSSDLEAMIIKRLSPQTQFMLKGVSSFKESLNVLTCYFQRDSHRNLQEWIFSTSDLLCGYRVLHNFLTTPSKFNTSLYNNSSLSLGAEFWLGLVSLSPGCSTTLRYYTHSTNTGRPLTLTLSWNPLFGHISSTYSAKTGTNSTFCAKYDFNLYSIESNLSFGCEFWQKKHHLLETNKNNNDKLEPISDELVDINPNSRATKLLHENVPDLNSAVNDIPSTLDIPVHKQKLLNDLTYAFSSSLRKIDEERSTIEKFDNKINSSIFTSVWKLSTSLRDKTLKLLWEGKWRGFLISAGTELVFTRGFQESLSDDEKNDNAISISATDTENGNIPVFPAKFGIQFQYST


Assays:
[1] = target: T1, Pex11-Cub (S. cerevisiae); assay: two-hybrid; split-ubiquitin membrane yeast two-hybrid (MYTH) in strain NMY51; baits with C-terminal Cub (pAMBV4), preys with N-terminal Nub (pPR3-N); growth on SD -Leu -Trp -Ade -His with 5-bromo-4-chloro-3-indolyl-β,D-galactopyranoside, 3-5 days at 30 °C; three independent experiments
[2] = target: T2, Mdm10-Cub (S. cerevisiae); assay: as above
[3] = target: T1, Pex11-Cub (S. cerevisiae); assay: two-hybrid; MYTH, unpublished results (U.P.); homodimerization of Pex11
[4] = target: T3, Mdm10 tagged at its C-terminus with the C-terminal part of Venus (VC) (S. cerevisiae); assay: split reporter; BiFC with split Venus in S. cerevisiae BY4741; Pex11 with VN at its N-terminus, partners with VC at their C-termini, tags inserted into the genome; fluorescence microscopy

Binder | binding [1] | binding [2] | binding [3] | binding [4]
Nub-Pex11 (protein, UniProt Q12462 1-236) MVCDTLVYHPSVTRFVKFLDGSAGREKVLRLLQYLARFLAVQNSSLLARQLQAQFTTVRKFLRFLKPLNHLQAAAKFYDNKLASDNVVRVCNVLKNIFFAAYLSLDQVNLLRILKVIPVTVLTGKKIPRWSNWCWLFGLLSGLAMDLRKIQTSHAQIAAFVKAKSQSQGDEHEDHKKVLGKAYQDRYTALRRLFWDAADSFIVLNNLGYLSSNEEYVALSGVVTSILGMQDMWKAT | binds | no binding | binds | –
Nub-Mdm10 (protein, UniProt P18409 1-493) MLPYMDQVLRAFYQSTHWSTQNSYEDITATSRTLLDFRIPSAIHLQISNKSTPNTFNSLDFSTRSRINGSLSYLYSDAQQLEKFMRNSTDIPLQDATETYRQLQPNLNFSVSSANTLSSDNTTVDNDKKLLHDSKFVKKSLYYGRMYYPSSDLEAMIIKRLSPQTQFMLKGVSSFKESLNVLTCYFQRDSHRNLQEWIFSTSDLLCGYRVLHNFLTTPSKFNTSLYNNSSLSLGAEFWLGLVSLSPGCSTTLRYYTHSTNTGRPLTLTLSWNPLFGHISSTYSAKTGTNSTFCAKYDFNLYSIESNLSFGCEFWQKKHHLLETNKNNNDKLEPISDELVDINPNSRATKLLHENVPDLNSAVNDIPSTLDIPVHKQKLLNDLTYAFSSSLRKIDEERSTIEKFDNKINSSIFTSVWKLSTSLRDKTLKLLWEGKWRGFLISAGTELVFTRGFQESLSDDEKNDNAISISATDTENGNIPVFPAKFGIQFQYST | no binding | – | – | –
Nub-Mdm12 (protein, UniProt Q92328 1-271) MSFDINWSTLESDNRLNDLIRKHLNSYLQNTQLPSYVSNLRVLDFDLGKVGPAITLKEITDPLDEFYDSIREEADQETEENNDNKEDSEHICPDRTIANHEGPKDDFEAPVVMPSPNDIQFLLEVEYKGDLLVTIGADLVLNYPVEKFMTLPVKLSISDIGLHSLCIVACLSKQLFLSFLCDVSDPALDDNQTVLDPKGPILAATKPLERISIVRSMKIETEIGEQYQGQGSVLRSVGELEQFLFTIFKDFLRKELAWPSWINLDFNDGDE | no binding | – | – | –
Pex11 tagged at its N-terminus with the N-terminal part of Venus (VN) (protein, UniProt Q12462 1-236) MVCDTLVYHPSVTRFVKFLDGSAGREKVLRLLQYLARFLAVQNSSLLARQLQAQFTTVRKFLRFLKPLNHLQAAAKFYDNKLASDNVVRVCNVLKNIFFAAYLSLDQVNLLRILKVIPVTVLTGKKIPRWSNWCWLFGLLSGLAMDLRKIQTSHAQIAAFVKAKSQSQGDEHEDHKKVLGKAYQDRYTALRRLFWDAADSFIVLNNLGYLSSNEEYVALSGVVTSILGMQDMWKAT | – | – | – | no binding
